# Measurements as given in PubChem BioAssay AID504832 (National Center for Advancing Translational Sciences (NCATS), 2011).
# In all, about 310,000 compounds went through this assay and about 18,000 (5.8%) were called active. The inconclusive results got no clear call from the source; some entries with a clear call stand among them for comparison. Calls come from the whole dose curve; as a rule, active = well fitted inhibition curve with a large enough effect; inconclusive = small, poorly fitted or top-dose-only effect, or another doubt; inactive = no such curve, though single readings can be large or run the other way. No potency is given beside an inconclusive call; the fits are too rough.
# Assay: Primary qHTS for delayed death inhibitors of the malarial parasite plastid, 48 hour incubation
# Conditions: P. falciparum luciferase growth in erythrocytes; series mostly up to 28.7 µM; activity change, negative = inhibition: at the top concentration
# Procedure, shortened: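 Growth was read as firefly luciferase luminescence after a 48 h, 37 C, 5% CO2 exposure of compounds to reporter-bearing P. falciparum cultures (0.1% parasitemia, 2% hematocrit final) in Albumax-supplemented RPMI 1640.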
# % is set by controls: 0 for no effect and ±100 for the full control effect; potency is the fitted concentration of half-maximal effect; tags give direction and shape of the fitted curve.
SMILES,Potency,"activity change, negative = inhibition"
O=C(COc1ccc2ccccc2c1)Nc1ccc(Cc2ccncc2)cc1,"inconclusive [inhibitor, single point]",–
CC1(c2ccccn2)Nc2ccccc2-c2nc3ccccc3n21 (configuration not stated),active: 1.65 µM,–
COc1ccc(-c2cc(C(=O)N3CCN(c4ccccc4)CC3)no2)cc1,–,inactive: 131%
CC(C)Oc1ccc(C(CC(=O)O)NC(=O)CSc2ncn[nH]2)cc1 (configuration not stated),–,inactive: 3.74%
CCOC(=O)c1ccc(NCc2cccnc2)cc1,–,inactive: 55.8%
CC(C(=O)N1CCN(c2ccc(Cl)cc2)CC1)c1ncc(C(F)(F)F)cc1Cl (configuration not stated),–,inactive: -1.61%
CCn1c(SCC(=O)NCc2ccco2)nc2ccccc2c1=O,–,inactive: -7.32%
O=C(Nc1ccccc1)c1ccc(Cn2cc(C(F)(F)F)ccc2=O)cc1,"inconclusive [inhibitor, partial curve, poor fit]",–
O=C(CN1CCN(S(=O)(=O)c2ccccc2)CC1)N1CCc2ccccc21,"inconclusive [inhibitor, single point]",–
O=C(COc1cccc(Cl)c1)NCC(c1cccs1)N1CCOCC1 (configuration not stated),"inconclusive [inhibitor, single point]",–
COc1ccc(-n2cc(CNCC3CCOCC3)c(-c3cccc(F)c3)n2)cc1,"inconclusive [inhibitor, partial curve]",–
Cc1cc(C)c(C#N)c(N2CCN(C(=O)C3COc4ccccc4O3)CC2)n1 (configuration not stated),"inconclusive [inhibitor, single point]",–
O=C(NCc1nc(-c2ccccc2)no1)c1ccc2c(c1)OCO2,–,inactive: 16.4%
Cc1ccc(S(=O)(=O)N2CCN(C(=O)Cn3cnc4c3c(=O)n(C)c(=O)n4C)CC2)cc1C,"inconclusive [inhibitor, single point]",–
S=C1NC2=C(CCCC2)C2(CCCCC2)N1,"inconclusive [inhibitor, partial curve, poor fit]",–
CCN(CC)C(=O)c1ccc(S(=O)(=O)N2CCC(c3nc4ccccc4s3)CC2)cc1,"inconclusive [inhibitor, single point]",–
COCCCn1c(SCC(=O)N2CCOCC2)nnc1-c1ccco1,"inconclusive [inhibitor, full curve, poor fit]",–
CN1C(C(=O)Nc2cccc(O)c2)=CC(c2ccco2)=NS1(=O)=O,–,inactive: 54.4%
COc1cc(C)c(C(=O)CSc2nnc(CNC(=O)c3ccco3)n2C)cc1C,"inconclusive [inhibitor, partial curve, poor fit]",–
CC(=O)c1cn(Cc2ccccc2)c(=O)n(Cc2ccc(F)cc2)c1=O,"inconclusive [inhibitor, single point]",–
COc1cccc(NC(=O)c2ccnc(N3CCC(C(=O)NCc4ccccc4OC)CC3)c2)c1,–,inactive: -15.1%
COC(=O)c1sccc1NC(=O)c1cc(-c2cccc(C)c2)nc2ccccc12,active: 9.28 µM,–
CC(=O)c1c(C)[nH]c(C(=O)CSc2nnc3ccccn23)c1C,–,inactive: 24.9%
C/C(=N\NC(=O)c1ccccc1[N+](=O)[O-])c1c(O)cc(C)oc1=O,–,inactive: -0.0959%

SMILES,Potency,"activity change, negative = inhibition"
Cc1ccc(NC(=O)c2ccc(OCc3c(C)noc3C)cc2)cc1,"inconclusive [inhibitor, partial curve, poor fit]",–
COc1ccc2c3c([nH]c2c1)C(C)NCC3 (configuration not stated),"inconclusive [inhibitor, single point]",–
O=S(=O)(Nc1ccc(O)c(NS(=O)(=O)c2ccccc2)c1)c1ccccc1,–,inactive: -5.9%
Cc1cccc(C)c1N1CCN(S(=O)(=O)N(C)C)CC1,"inconclusive [inhibitor, single point]",–
CC(C(=O)NCC1CCCO1)n1cc([N+](=O)[O-])cn1 (configuration not stated),–,inactive: 1.39%
O=C(CN1C(=O)S/C(=C\c2ccccc2F)C1=O)NCCCn1ccnc1,–,inactive: -4.46%
Cc1cccc(C)c1NC(=O)/C(C#N)=C/c1cccs1,"inconclusive [inhibitor, partial curve, poor fit]",–
Cc1nn(Cc2ccc(Cl)c(Cl)c2)c(C)c1NC(=O)c1sc2ccccc2c1Cl,–,inactive: 17.9%
Cc1ccc(S(=O)(=O)/N=C(/c2ccc(F)cc2)N2CCCC2)cc1,–,inactive: -11.3%
Cc1nc2ccc(NC(=O)c3ccc(S(=O)(=O)N(C)c4ccccc4)cc3)cc2s1,"inconclusive [inhibitor, single point]",–
O=C(CSc1ccc2nnc(-c3ccccn3)n2n1)Nc1ccccc1F,active: 9.28 µM,–
O=C(CC1SC(N2CCCC2)=NC1=O)Nc1ccc(C(=O)NCCc2ccc(F)cc2)cc1 (configuration not stated),"inconclusive [inhibitor, partial curve]",–
O=C(c1cccc(C(F)(F)F)c1)C1CCCN(C(=O)CCn2cnnn2)C1 (configuration not stated),–,inactive: 1.04%
COc1cc(C(=S)N2CCOCC2)cc(OC)c1OS(=O)(=O)c1ccc(NC(C)=O)cc1,–,inactive: 0.133%
NC(=O)c1c(NC(=O)c2cc3ccccc3o2)sc2c1CCC2,–,inactive: 4.49%
COc1ccc(CCN(C)C(=O)CCNC(=O)c2ccc(Br)cc2)cc1OC,"inconclusive [inhibitor, partial curve]",–
COc1ccc(O[C@H]2C=C[C@@H](c3ccccc3)O[C@@H]2COC(=O)CC/C(C)=N/O[C@@H](C)c2cn([C@H](CO)Cc3ccccc3)nn2)cc1,"inconclusive [inhibitor, partial curve, poor fit]",–
CCS(=O)(=O)C1=NSC2=NC(=O)/C(=C\c3ccc(OC(=O)c4ccco4)c(OC)c3)C(=N)N21,–,inactive: 9.99%
O=c1cccc2c1c1cc[nH]c3ccc(=O)n2c31,"inconclusive [inhibitor, single point]",–
CC(=O)c1sc(-c2cccc(Cl)c2)nc1C,–,inactive: 70.3%
O=C(CC(c1ccccc1)c1cc(Cl)ccc1O)N1CCCC1 (configuration not stated),"inconclusive [inhibitor, partial curve]",–
CC(C)CC(=O)Nc1ccc(F)c(Cl)c1,–,inactive: 15.3%
CN1CCN(c2cc(N3CCCCCC3)c(F)cc2[N+](=O)[O-])CC1,"inconclusive [inhibitor, partial curve, poor fit]",–
